# Assay results reported in the supplement of paper PMC8728848.
# This is one part of the list.
# Legend:
# Test in all cases: glycan array binding signal (z-score within array); higher = stronger binding
# Conditions in all cases: glycan notation: IUPAC condensed, linker removed
# [1] = target: Man(a1-3)[Man(a1-6)]Man(a1-6)[Man(a1-3)]Man(b1-4)GlcNAc(b1-4)GlcNAc
# Outline: (§1)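 Negative Z-scores can be read as non-binding. The Z-score is calculated within each array and then averaged across arrays of one protein sequence at different concentrations or buffers and across linkers. Arrays, 3228 in all, were curated from the Consortium for Functional Glycomics database and kept only where the protein sequence was available.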
# [2] = target: Man(a1-3)[Man(a1-6)]Man(b1-4)GlcNAc(b1-4)GlcNAc
# Outline: as §1
# Man(a1-6)Man = target: Man(a1-6)Man
# Outline: as §1
# Man(b1-4)GlcNAc = target: Man(b1-4)GlcNAc
# Outline: as §1
# Neu5Ac(a2-3)Gal = target: Neu5Ac(a2-3)Gal
# Outline: as §1
# [3] = target: Neu5Ac(a2-3)Gal(b1-3)GalNAc
# Outline: as §1
# [4] = target: Neu5Ac(a2-3)Gal(b1-3)GalNAc(b1-3)Gal(a1-4)Gal(b1-4)Glc
# Outline: as §1
# [5] = target: Neu5Ac(a2-3)Gal(b1-3)GalNAc(b1-3)Gal(b1-4)GlcNAc
# Outline: as §1
# [6] = target: Neu5Ac(a2-3)Gal(b1-3)GalNAc(b1-4)[Neu5Ac(a2-3)]Gal(b1-4)Glc
# Outline: as §1
# [7] = target: Neu5Ac(a2-3)Gal(b1-3)GalNAc6S
# Outline: as §1
# [8] = target: Neu5Ac(a2-3)Gal(b1-3)GlcNAc
# Outline: as §1
# [9] = target: Neu5Ac(a2-3)Gal(b1-3)GlcNAc(b1-3)Gal(b1-3)GlcNAc
# Outline: as §1
# [10] = target: Neu5Ac(a2-3)Gal(b1-3)GlcNAc6S
# Outline: as §1
# [11] = target: Neu5Ac(a2-3)Gal(b1-3)[Fuc(a1-4)]GlcNAc
# Outline: as §1
# [12] = target: Neu5Ac(a2-3)Gal(b1-3)[Fuc(a1-4)]GlcNAc(b1-3)Gal(b1-4)[Fuc(a1-3)]GlcNAc
# Outline: as §1
# [13] = target: Neu5Ac(a2-3)Gal(b1-3)[Neu5Ac(a2-3)Gal(b1-4)]GlcNAc
# Outline: as §1
# [14] = target: Neu5Ac(a2-3)Gal(b1-3)[Neu5Ac(a2-6)]GalNAc
# Outline: as §1
# Neu5Ac(a2-3)Gal(b1-4)Glc = target: Neu5Ac(a2-3)Gal(b1-4)Glc
# Outline: as §1
# [15] = target: Neu5Ac(a2-3)Gal(b1-4)GlcNAc
# Outline: as §1
# [16] = target: Neu5Ac(a2-3)Gal(b1-4)GlcNAc(b1-2)Man(a1-3)[GlcNAc(b1-2)Man(b1-4)GlcNAc(b1-2)Man(a1-6)]Man(b1-4)GlcNAc(b1-4)GlcNAc
# Outline: as §1
# [17] = target: Neu5Ac(a2-3)Gal(b1-4)GlcNAc(b1-2)Man(a1-3)[Neu5Ac(a2-6)Gal(b1-4)GlcNAc(b1-2)Man(a1-6)]Man(b1-4)GlcNAc(b1-4)GlcNAc
# Outline: as §1
# [18] = target: Neu5Ac(a2-3)Gal(b1-4)GlcNAc(b1-3)Gal(b1-3)GlcNAc
# Outline: as §1
# [19] = target: Neu5Ac(a2-3)Gal(b1-4)GlcNAc(b1-3)Gal(b1-4)GlcNAc
# Outline: as §1
# [20] = target: Neu5Ac(a2-3)Gal(b1-4)GlcNAc(b1-3)Gal(b1-4)GlcNAc(b1-3)Gal(b1-4)GlcNAc
# Outline: as §1
# [21] = target: Neu5Ac(a2-3)Gal(b1-4)GlcNAc(b1-3)Gal(b1-4)[Fuc(a1-3)]GlcNAc
# Outline: as §1
# [22] = target: Neu5Ac(a2-3)Gal(b1-4)GlcNAc(b1-6)[Gal(b1-3)]GalNAc
# Outline: as §1
# [23] = target: Neu5Ac(a2-3)Gal(b1-4)GlcNAc(b1-6)[Neu5Ac(a2-3)Gal(b1-3)]GalNAc
# Outline: as §1
# [24] = target: Neu5Ac(a2-3)Gal(b1-4)GlcNAc6S
# Outline: as §1
# [25] = target: Neu5Ac(a2-3)Gal(b1-4)[Fuc(a1-3)]GlcNAc
# Outline: as §1
# [26] = target: Neu5Ac(a2-3)Gal(b1-4)[Fuc(a1-3)]GlcNAc(b1-3)Gal
# Outline: as §1
# [27] = target: Neu5Ac(a2-3)Gal(b1-4)[Fuc(a1-3)]GlcNAc(b1-3)Gal(b1-4)GlcNAc
# Outline: as §1
# [28] = target: Neu5Ac(a2-3)Gal(b1-4)[Fuc(a1-3)]GlcNAc(b1-3)Gal(b1-4)[Fuc(a1-3)]GlcNAc(b1-3)Gal(b1-4)[Fuc(a1-3)]GlcNAc
# Outline: as §1
# [29] = target: Neu5Ac(a2-3)Gal(b1-4)[Fuc(a1-3)]GlcNAc(b1-6)[Gal(b1-3)]GalNAc
# Outline: as §1
# [30] = target: Neu5Ac(a2-3)Gal(b1-4)[Fuc(a1-3)]GlcNAc6S
# Outline: as §1
# [31] = target: Neu5Ac(a2-3)Gal6S(b1-4)GlcNAc
# Outline: as §1
# [32] = target: Neu5Ac(a2-3)Gal6S(b1-4)[Fuc(a1-3)]GlcNAc
# Outline: as §1
# Neu5Ac(a2-3)GalNAc = target: Neu5Ac(a2-3)GalNAc
# Outline: as §1
# [33] = target: Neu5Ac(a2-3)GalNAc(b1-4)GlcNAc
# Outline: as §1
# [34] = target: Neu5Ac(a2-3)[GalNAc(b1-4)]Gal(b1-4)Glc
# Outline: as §1
# [35] = target: Neu5Ac(a2-3)[GalNAc(b1-4)]Gal(b1-4)GlcNAc
# Outline: as §1
# [36] = target: Neu5Ac(a2-3)[Neu5Ac(a2-6)]GalNAc
# Outline: as §1
# Neu5Ac(a2-6)Gal = target: Neu5Ac(a2-6)Gal
# Outline: as §1
# Neu5Ac(a2-6)Gal(b1-4)Glc = target: Neu5Ac(a2-6)Gal(b1-4)Glc
# Outline: as §1
# [37] = target: Neu5Ac(a2-6)Gal(b1-4)GlcNAc
# Outline: as §1
# [38] = target: Neu5Ac(a2-6)Gal(b1-4)GlcNAc(b1-2)Man(a1-3)[Gal(b1-4)GlcNAc(b1-2)Man(a1-6)]Man(b1-4)GlcNAc(b1-4)GlcNAc
# Outline: as §1
binder,measurement,setting,value
"RfpB (Mycobacterium tuberculosum), O05594 (protein) MAAGLVTASMSLSTAVAHAGPSPNWDAVAQCESGGNWAANTGNGKYGGLQFKPATWAAFGGVGNPAAASREQQIAVANRVLAEQGLDAWPTCGAASGLPIALWSKPAQGIKHAGPSPNWDAVAQCESGGNWAANTGNGKYGGLQFKPATWAAFGGVGNPAAASREQQIAVANRVLAEQGLDAWPTCGA",glycan array binding signal (z-score),[1],0.289
same,glycan array binding signal (z-score),[2],0.505
same,glycan array binding signal (z-score),Man(a1-6)Man,-0.06
same,glycan array binding signal (z-score),Man(b1-4)GlcNAc,-0.558
same,glycan array binding signal (z-score),Neu5Ac(a2-3)Gal,-0.209
same,glycan array binding signal (z-score),[3],-0.19
same,glycan array binding signal (z-score),[4],-0.099
same,glycan array binding signal (z-score),[5],-0.13
same,glycan array binding signal (z-score),[6],4.02
same,glycan array binding signal (z-score),[7],0.036
same,glycan array binding signal (z-score),[8],0.417
same,glycan array binding signal (z-score),[9],-0.552
same,glycan array binding signal (z-score),[10],-0.709
same,glycan array binding signal (z-score),[11],-0.478
same,glycan array binding signal (z-score),[12],-0.316
same,glycan array binding signal (z-score),[13],-0.141
same,glycan array binding signal (z-score),[14],-0.254
same,glycan array binding signal (z-score),Neu5Ac(a2-3)Gal(b1-4)Glc,-0.155
same,glycan array binding signal (z-score),[15],-0.034
same,glycan array binding signal (z-score),[16],-0.209
same,glycan array binding signal (z-score),[17],-0.524
same,glycan array binding signal (z-score),[18],-0.23
same,glycan array binding signal (z-score),[19],-0.387
same,glycan array binding signal (z-score),[20],0.052
same,glycan array binding signal (z-score),[21],-0.469
same,glycan array binding signal (z-score),[22],-0.472
same,glycan array binding signal (z-score),[23],-0.548
same,glycan array binding signal (z-score),[24],1.6
same,glycan array binding signal (z-score),[25],-0.644
same,glycan array binding signal (z-score),[26],-0.07
same,glycan array binding signal (z-score),[27],0.039
same,glycan array binding signal (z-score),[28],-0.201
same,glycan array binding signal (z-score),[29],-0.338
same,glycan array binding signal (z-score),[30],0.147
same,glycan array binding signal (z-score),[31],-0.712
same,glycan array binding signal (z-score),[32],0.035
same,glycan array binding signal (z-score),Neu5Ac(a2-3)GalNAc,0.601
same,glycan array binding signal (z-score),[33],-0.653
same,glycan array binding signal (z-score),[34],-0.524
same,glycan array binding signal (z-score),[35],-0.024
same,glycan array binding signal (z-score),[36],-0.117
same,glycan array binding signal (z-score),Neu5Ac(a2-6)Gal,0.561
same,glycan array binding signal (z-score),Neu5Ac(a2-6)Gal(b1-4)Glc,0.151
same,glycan array binding signal (z-score),[37],-0.144
same,glycan array binding signal (z-score),[38],0.009
